Reference: PubChem BioAssay AID2147 (National Center for Advancing Translational Sciences (NCATS), 2009)
In all, about 230,000 compounds went through this assay and about 3,600 (1.6%) were called active. Inconclusive results, whose numbers are uncertain, are shown with a selection of clear calls. Calls follow the shape of the dose curve; as a rule, active = well fitted inhibition curve with a large enough effect (not every such curve was filed as active); inconclusive = small, poorly fitted or top-dose-only effect, or another doubt; inactive = no such curve, though single readings can be large or run the other way. Potencies beside an inconclusive call are fits to weak or partial responses and may not hold up.

Each compound was assayed against Lysine-specific demethylase 4E (Homo sapiens) (UniProt B2RXH2) (assay: qHTS Assay for Inhibitors of Human Jumonji Domain Containing 2E (JMJD2E)). Details: JMJD2E catalytic domain, FDH-coupled NADH fluorescence (FDH is formaldehyde dehydrogenase); series mostly up to 57.1 µM.
Chain of UniProt B2RXH2 (B2RXH2 whole entry, looked up, the tested form may be a part): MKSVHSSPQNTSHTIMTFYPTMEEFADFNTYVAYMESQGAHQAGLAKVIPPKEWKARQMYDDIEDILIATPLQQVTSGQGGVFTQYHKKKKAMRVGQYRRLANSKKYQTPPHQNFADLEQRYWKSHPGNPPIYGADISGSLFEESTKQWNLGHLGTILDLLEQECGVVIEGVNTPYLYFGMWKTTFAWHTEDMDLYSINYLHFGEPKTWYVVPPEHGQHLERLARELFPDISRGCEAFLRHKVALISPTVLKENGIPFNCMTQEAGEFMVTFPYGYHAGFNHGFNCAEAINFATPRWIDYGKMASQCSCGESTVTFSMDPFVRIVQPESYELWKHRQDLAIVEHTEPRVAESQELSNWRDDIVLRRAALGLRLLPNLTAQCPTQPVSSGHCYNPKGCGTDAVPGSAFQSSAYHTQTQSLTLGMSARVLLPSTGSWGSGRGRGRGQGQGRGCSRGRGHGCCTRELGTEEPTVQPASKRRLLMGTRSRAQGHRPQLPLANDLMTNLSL
Also: nearly all actives have a fitted effect of over 50% in size.
Potency is read from the fitted curve at half-maximal effect; tags tell the direction and shape of the fitted curve.

**Q.** For `COc1cc(C(=O)Nc2nc(-c3cccs3)cs2)cc(OC)c1OC`, which Potency is on record?
**A.** Its Potency is inconclusive: 35.5 µM [inhibitor, single point].

**Q.** Which Potency does the source give for `COc1cccc(CNC(=O)c2cc3c(C)nc4ccccc4c3o2)c1` here?
**A.** Its Potency is “inactive”.

**Q.** Which Potency does the source give for `N#Cc1c(NC(=O)c2cnn3cccnc23)sc2c1CCCC2` here?
**A.** The Potency was “inactive”.

**Q.** Which Potency does the source give for `CCOc1ccccc1-c1nc(C(N)=O)c2[nH]c(=O)n(-c3cccc(C)c3)c2n1` here?
**A.** Its Potency is inconclusive: 28.2 µM [inhibitor, single point].

**Q.** `C/C=C1\C(=O)CC2C3CCC4=CC(=O)CC[C@]4(C)C3CC[C@]12C` (some centres undefined) was tested. Which Potency did it give?
**A.** Its Potency is “inactive”.

**Q.** For `C=C(C)C1CC=C(CN2CC(C)OC(C)C2)CC1` (centres undefined), which Potency is on record?
**A.** Its Potency is inconclusive: 35.5 µM [inhibitor, single point].

**Q.** How did the Potency turn out when `O=C(O)/C=C/c1cccc(OCc2ccccc2)c1` was run?
**A.** The Potency was inconclusive: 39.8 µM [inhibitor, single point].

**Q.** Which Potency does the source give for `COc1ccc(Br)cc1/C=N/NC(=O)c1cccc(S(=O)(=O)N2CCOCC2)c1` here?
**A.** Its Potency is inconclusive: 39.8 µM [inhibitor, single point].

**Q.** How did the Potency turn out when `CC1=C(CC(=O)c2ccc(Cl)cc2)C(=O)c2ccccc2C1=O` was run?
**A.** Its Potency is inconclusive: 39.8 µM [inhibitor, single point].

**Q.** How did the Potency turn out when `Cc1ccc(C2C(C#N)=C(N)Oc3c2sc2ccccc32)o1` (centres undefined) was run?
**A.** Its Potency is inconclusive: 28.2 µM [inhibitor, partial curve].

**Q.** `CCN(CC)c1ccc(/C=N/NC(=O)c2ccoc2C)cc1` was tested. Which Potency did it give?
**A.** The Potency was inconclusive: 31.6 µM [inhibitor, partial curve].

**Q.** For `CCC(=O)N1c2ccccc2-c2nnc(SC)nc2OC1c1ccc(N(C)C)cc1` (centres undefined), which Potency is on record?
**A.** Its Potency is “inactive”.

**Q.** With `OC1(CC#CCN2CCCCC2)c2ccccc2-c2ccccc21` as the compound, how does the Potency read?
**A.** Its Potency is “inactive”.

**Q.** Which Potency does the source give for `O=C(Nc1cccc(Cl)c1)Nc1ccccc1C(=O)NCc1ccco1` here?
**A.** The Potency was inconclusive: 22.4 µM [inhibitor, partial curve].

**Q.** For `CC1(C)CC(=O)c2cnc3c(C#N)cnn3c2C1`, which Potency is on record?
**A.** The Potency was inconclusive: 31.6 µM [inhibitor, partial curve].

**Q.** `COc1ccc(/C=C/C(=O)N(C)Cc2cccs2)cc1S(=O)(=O)N1CCOCC1` was tested. Which Potency did it give?
**A.** Its Potency is inconclusive: 3.55 µM [inhibitor, single point].

**Q.** How did the Potency turn out when `CN1/C(=C\C=N\NC(=O)c2ccc(O)cc2)C(C)(C)c2ccccc21` was run?
**A.** Its Potency is inconclusive: 31.6 µM [inhibitor, single point].

**Q.** How did the Potency turn out when `O=C(O)c1ccc(CN2C(=O)CSC2=S)cc1` was run?
**A.** The Potency was “inactive”.

**Q.** With `Clc1ccc(N2CCOCC2)nn1` as the compound, how does the Potency read?
**A.** Its Potency is “inactive”.

**Q.** For `Cn1c(=O)[nH]c(=O)c2c1nc(SCCN1CCCCC1)n2CCCc1ccccc1`, which Potency is on record?
**A.** The Potency was “inactive”.

**Q.** How did the Potency turn out when `Cn1c(=O)c2c(nc(CN3CCN(C(=O)c4ccco4)CC3)n2Cc2ccccc2)n(C)c1=O` was run?
**A.** Its Potency is “inactive”.

**Q.** Which Potency does the source give for `Cc1cc(N=Cc2c(O)ccc3ccccc23)no1` here?
**A.** The Potency was “inactive”.

**Q.** With `CC1(C)NC(C)(C)c2nonc2/C1=N\O` as the compound, how does the Potency read?
**A.** The Potency was “inactive”.

**Q.** How did the Potency turn out when `O=C(Nc1nnc(-c2ccc(F)cc2)s1)Nc1ccccc1F` was run?
**A.** Its Potency is “inactive”.

**Q.** With `COc1ccc(C2CC(c3cccs3)=NN2C(=O)c2ccc(Br)o2)cc1` (centres undefined) as the compound, how does the Potency read?
**A.** The Potency was inconclusive: 28.2 µM [inhibitor, single point].

**Q.** Which Potency does the source give for `CC(=O)c1ccc(-c2ccc(C(=O)NC3CCCCCC3)o2)cc1` here?
**A.** The Potency was inconclusive: 31.6 µM [inhibitor, partial curve].

**Q.** For `Cc1cc(-c2ccc(C(=O)O)s2)cnc1N`, which Potency is on record?
**A.** The Potency was inconclusive: 3.55 µM [inhibitor, full curve].

**Q.** For `COc1cc(/C=C2\SC(=O)N(c3ccc(O)cc3)C2=O)cc(OC)c1OC`, which Potency is on record?
**A.** The Potency was inconclusive: 31.6 µM [inhibitor, partial curve].

**Q.** For `CC1CCCN(C(=O)CSc2nnc(-c3ccc(S(=O)(=O)N4CCOCC4)cc3)n2C)C1` (centres undefined), which Potency is on record?
**A.** Its Potency is inconclusive: 22.4 µM [inhibitor, partial curve].

**Q.** With `O=C(CCc1c[nH]c2ccccc12)NCC(=O)Nc1ccc(F)c(F)c1F` as the compound, how does the Potency read?
**A.** Its Potency is “inactive”.

**Q.** `CC(C)(C)n1nnnc1C(c1cccs1)N(Cc1cccnc1)Cc1ccccc1Cl` (centres undefined) was tested. Which Potency did it give?
**A.** The Potency was inconclusive: 39.8 µM [inhibitor, single point].

**Q.** How did the Potency turn out when `Cc1cc(C)nc(Nc2n[nH]c(-c3ccccc3N)n2)n1` was run?
**A.** The Potency was inconclusive: 22.4 µM [inhibitor, partial curve].

**Q.** With `Cn1c(Cc2csc(N)n2)nnc1SCC(=O)NC1CCCCC1` as the compound, how does the Potency read?
**A.** Its Potency is inconclusive: 39.8 µM [inhibitor, single point].

**Q.** Which Potency does the source give for `O=C(Cn1cnc2c(cnn2-c2ccccc2)c1=O)Nc1cc(S(=O)(=O)N2CCOCC2)ccc1Cl` here?
**A.** The Potency was inconclusive: 35.5 µM [inhibitor, single point].

**Q.** With `CCCN(C/C=C\I)[C@@H]1CCc2cccc(O)c2C1` as the compound, how does the Potency read?
**A.** Its Potency is active: 28.2 µM.

**Q.** With `Cc1ccc(NC(=O)c2cc(C(C)(C)C)nn2Cc2ccccc2)cc1` as the compound, how does the Potency read?
**A.** Its Potency is “inactive”.

**Q.** Which Potency does the source give for `COCCNC(=O)CN1CCCCCC1` here?
**A.** The Potency was “inactive”.

**Q.** `CCN(CC)c1ccc(NC(=O)C(C)C)cc1` was tested. Which Potency did it give?
**A.** The Potency was “inactive”.

**Q.** `OCCCNc1c2c(nc3cc(-c4ccc(Cl)cc4)nn13)CCC2` was tested. Which Potency did it give?
**A.** Its Potency is inconclusive: 35.5 µM [inhibitor, single point].

**Q.** Which Potency does the source give for `Cc1ccc(-n2c(CCC(=O)O)ccc2-c2cccs2)cc1` here?
**A.** The Potency was inconclusive: 25.1 µM [inhibitor, single point].

**Q.** How did the Potency turn out when `COc1ccc(CC(=O)NCc2n[nH]c(=S)n2-c2ccccc2)cc1` was run?
**A.** Its Potency is “inactive”.

**Q.** For `COc1ccc(-c2nc(-c3cccc(C)c3)[nH]c(=O)c2C#N)cc1`, which Potency is on record?
**A.** Its Potency is inconclusive: 7.08 µM [inhibitor, single point].

**Q.** Which Potency does the source give for `COC(=O)c1ccc(NC(=O)c2ccccc2-c2ccccc2C(=O)O)cc1` here?
**A.** The Potency was “inactive”.

**Q.** `CCN(CC)CCn1c(SCC(=O)NCc2ccccc2)nc2c(sc3ccccc32)c1=O` was tested. Which Potency did it give?
**A.** Its Potency is inconclusive: 17.8 µM [inhibitor, partial curve].

**Q.** `COCCNC(=O)/C(C#N)=C/c1ccc2c(c1)OCO2` was tested. Which Potency did it give?
**A.** The Potency was inconclusive: 39.8 µM [inhibitor, single point].

**Q.** Which Potency does the source give for `CCOc1ccc(NC2=NCC(=O)N2CCc2ccccc2)cc1` here?
**A.** Its Potency is “inactive”.

**Q.** Which Potency does the source give for `COc1ccc(Cn2nnnc2C(c2ccncc2)N2CCOCC2)cc1` (centres undefined) here?
**A.** Its Potency is inconclusive: 39.8 µM [inhibitor, single point].

**Q.** `O=C(O)CCCCCn1c(SCC(=O)c2ccc(O)c(O)c2)nc2ccsc2c1=O` was tested. Which Potency did it give?
**A.** Its Potency is active: 10 µM.

**Q.** For `COc1c2ccoc2c(OC[C@@H](O)C(C)(C)OC)c2oc(=O)ccc12`, which Potency is on record?
**A.** Its Potency is inconclusive: 22.4 µM [inhibitor, partial curve].
